The source gives no read counts; variants with many changes may rest on few reads.

Experimental findings from the RNAGym collection of RNA variant scans (doi:10.1093/nar/gkz1192) are described below.

The chains are these.
B1: CPEB3 Ribozyme (parent)
chain: UAACAGGGGGCCACAGCAGAAGCGUUCACGUCGCAGCCCCUGUCAGAUUCUGGUGAAUCUGCGAAUUCUGCUGUAUAUCUC

The variants in the data set derive from B1. Description: self-cleavage, relative activity (ratio to wild type); higher = more cleavage; in vitro, sequencing. In outline: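 Relative activity compares each variant's cleaved/total read fraction with that of the unmutated ribozyme. To get these fractions, barcoded CPEB3 ribozyme libraries from rounds of error-prone PCR were transcribed with T7 RNA polymerase for 5 hours at 37°C and then given 15 min of DNase I treatment before EDTA was added. The RNAs were reverse transcribed with template switching and sequenced on Illumina, and DNA sequencing linked barcodes to variants. A minimum of 5 reads applied, and three batches were averaged.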
As for U25C U60C U69C, the self-cleavage was determined as 0.25.
In the case of U25C U60A A64G it was 0.29; in that of U26A A45C U72C, 0.18; in that of U26A A64G A65G U74C, 0.05.
The same measure for U26A C39A U58C U67A U80C: 0.17; for U25C U60A U80A: 0.18; for U26A A35G U43C: 0.49.
Consider U25C U60A U69A, for which the self-cleavage worked out at 0.07.
In the case of U26A A45G C62U it was 0.26; in that of U25G U43C A57G U72C, 0.25; in that of U26A C40U A57G U72A U80C, 0.33.
In the case of U26A A28C U76A U80C it was 0.46; in that of U25G A28G A65G U76A, 0.08; in that of U26A C27G U43C C59A U72A, 0.08.
In the case of U25C U69C U72A it was 0.12.
With U26A G30A U78C, the self-cleavage stood at 0.16.
On to U26A A65U U67A, for which the self-cleavage is 0.25.
With U26A A28G G33A U51C U72G, the self-cleavage amounted to 0.14.
The same measure for U25G C39U U74C: 0.13; for U26A A47G U76C: 0.51; for U26A A45U U49C: 0.26.
In the case of U25G A45G A56G U74A it was 0.32; in that of U25G U54C U60C, 0.2; in that of U26A A28G A64U, 0.09.
On to U25G C29U U48C A65G, for which the self-cleavage worked out at 0.3.
In the case of U25G A65G U72C it was 0.09; in that of U25G U26C U74C U78C, 0.11; in that of U26A A56G C62G C71U U74C, 0.12.
With U26A A47G U51A, the self-cleavage is 0.68.
As to U26A A65G U69A U78C, the self-cleavage stood at 0.16.
In the case of U26A A56C U67C it was 0.15; in that of U26A A28G C34G, 0.29.
In the case of U26A A28G C34U it was 0.1; in that of U25C U54C U69C, 0.39; in that of U25G A35G A64U, 0.26.
As to U25C U54A U72G U78C U80C, the self-cleavage turned out to be 0.17.
Regarding U26A C27U U49C C59U U60C A65G, the self-cleavage is 0.13.
As to U25C U60C U76C, the self-cleavage came to 0.37.
In the case of U26A C32A U41C U54C A56G A65G U80C it was 0.06; in that of U25C U67C U69A, 0.47; in that of U25G U67A U78C, 0.2.
In the case of U26A A35G C38U A75U it was 1.31.
As for U26A A35G A56G U67C, the self-cleavage was determined as 0.27.
In the case of U25G A28G A45G it was 0.07.
In the case of U26A A45U G63A U67A U80A it was 0.15; in that of U25C U69C U78C, 0.22.
The same measure for U26A G30U C34U U58A: 0.14; for U25C U67C C71G: 0.14.
For the variant U26A C34U U69A, the self-cleavage was determined as 0.2.
The same measure for U26A C50A U51C G52A: 0.81.
The same measure for U26A A28U U43C A64U A65G U72C: 0.14; for U26A C40A G55U A64U U69C: 0.05.
Consider U25G A28G U31C, for which the self-cleavage is 0.31.
As for U26A A28G U54C, the self-cleavage is 0.38.
With U26A G30A A56U, the self-cleavage was determined as 0.15.
In the case of U26A A65G U80C it was 0.43; in that of U26A G30A U41C G70A U76A, 0.35; in that of U26A A35U U43C U49C C59G, 0.06.
In the case of U25G U31A G33A U41A A64G A77U it was 0.09.
The same measure for U26A A47G C50G A57G: 0.09; for U26A A35G U49C A65G: 0.35; for U25G A28G U74C U80A: 0.1.
As for U26A C32U A57G A64G A75G U80C, the self-cleavage was determined as 0.02.
As to U25C U58C U60A A75G, the self-cleavage was found to be 0.34.
On to U25G G36A A56G U74A, for which the self-cleavage was found to be 0.22.
The same measure for U26A A47G G61A U67C: 0.19; for U25C U54A U72A: 0.18.
The same measure for U25G G63C A64C U80C: 0.08; for U26A A35G U43C U49C A57G U69C C71A: 0.05; for U26A A47G U69A: 0.5.
Take U26A G33A U60C A64U U66C U74C: the self-cleavage was 0.09.
For U26A A45G U49A, the self-cleavage amounted to 0.25.
As for U26A A47G C59U A64G, the self-cleavage stood at 0.41.
In the case of U25G A45G U60C U67C, the self-cleavage turned out to be 0.1.
In the case of U25C U72C U74A A77G it was 0.33.
The same measure for U25G G42U A64G: 0.25; for U25C U67A U72A U80C: 0.13; for U25G C39A A65G: 0.08.
Take U25G U51C A75U: the self-cleavage is 0.32.
Take U25C U60A U66C: the self-cleavage is 0.09.
The same measure for U26A A47G U60C: 0.51; for U26A A28G A57G: 0.13.
In the case of U25C U60A A75G it was 0.11; in that of U25G U41A U54G, 0.42; in that of U26A A35U U43C U48A U49C U76C, 0.06.
In the case of U25C U60C C71U it was 0.14; in that of U26A C40A G55U A57G U69C U80C, 0.06; in that of U25G A65G U66G, 0.08.
Take U25C U54A U72G U80C: the self-cleavage was found to be 0.15.
In the case of U26A A35U G52A A77G, the self-cleavage was 0.37.
In the case of U25C U54C U60C it was 0.19; in that of U26A A47G A57G U58C, 0.93; in that of U26A C27G U51C A57G U78C, 0.3.
The same measure for U26A A35U U74A U80A: 1.02; for U25G U31C A47U: 0.06; for U25C U54C U67C: 0.07.
The same measure for U25C U60C A64G: 0.22.
Consider U26A A35U U41C A77U, for which the self-cleavage turned out to be 0.22.
The same measure for U26A A35G U60C U72C: 1.11; for U25C U54C A56U U60C A64G A77U: 0.08.
As for U26A C40U U48C U49C U54G A65G U72A, the self-cleavage came out at 0.05.
Take U26A C37U U41C U43C: the self-cleavage is 0.11.
Consider U26A A35G U41C U54C U60A A77G, for which the self-cleavage worked out at 0.84.
The same measure for U26A G33C C62U A77G: 0.05.
With U25C U67C G70A, the self-cleavage is 0.38.
For U26A A35G U48C U78C, the self-cleavage turned out to be 1.17.
Regarding U25C U60C U67C U80A, the self-cleavage is 0.13.
In the case of U25G U41A U48C A57G U58G A64G it was 0.02.
Consider U26A A56G U69A, for which the self-cleavage turned out to be 0.41.
Take U26A G30A U49A: the self-cleavage was 0.46.
In the case of U26A C38U U74A it was 1.15; in that of U25G U41C U49C U76A A77G, 0.11; in that of U25C U54C A65C U67C, 0.16.
On to U26A C38U C59U U74A, for which the self-cleavage is 0.75.
Take U26A C29U U51C U60A U72C: the self-cleavage stood at 0.16.
As for U25C U69C U72C U74C, the self-cleavage stood at 0.11.
With U25C U58A A64G, the self-cleavage amounted to 0.08.
In the case of U25C U66C U67G it was 0.21.
In the case of U25G U41C A65G it was 0.37; in that of U26A A28U U72C, 0.88.
The same measure for U26A G33C U43G A65G U76C: 0.06.
For the variant U25C U54A U58G G70A A77G, the self-cleavage is 0.04.
In the case of U26A A28U U31C U41G A64U U67C U74C it was 0.06; in that of U26A A64U U72C, 0.25; in that of U26A A77G U78C, 0.47.
With U25C U67G U80C, the self-cleavage was determined as 0.15.
In the case of U25G U26A U43C U76A A77U it was 0.06; in that of U26A A56U U60C U72C, 0.2.
On to U26A A45G A64G, for which the self-cleavage stood at 0.51.
In the case of U26A A35C A56G it was 0.5.
The same measure for U26A G30A U69G: 0.09.
As for U26A C32U U72C U76A U80C, the self-cleavage came to 0.08.
As to U26A C32A U60C, the self-cleavage stood at 0.1.
U26A A35G U72A: the self-cleavage is 0.85.
Regarding U26A A35G U72C, the self-cleavage is 1.29.
In the case of U26A G30A A57G U69C it was 0.14; in that of U26A C29U U41A U60A, 0.14; in that of U26A C32A A35G U43C U48C U49G U66C, 0.06.
The same measure for U26A G30C U60C U78C: 0.05; for U25C U60A A64G U72A: 0.03.
As for U25C U58C U60C A65G, the self-cleavage is 0.07.
On to U26A A28G U41C U78C, for which the self-cleavage came out at 0.11.
U25C U76C A77U: the self-cleavage is 0.25.
As to U25C U54C G55U, the self-cleavage is 0.22.
In the case of U26A A65G U69A it was 0.32; in that of U25C U66C U69A, 0.14.
As to U25C U51C U60C A77G, the self-cleavage was determined as 0.36.
In the case of U25G A56G A57G it was 0.26.
In the case of U26A A28C A57G U78C it was 0.33; in that of U26A C34G A65U U78C, 0.11; in that of U26A C40U A45U, 0.
The same measure for U25C U54C A65G U80C: 0.16; for U26A C62U G73A: 0.25.
As for U25C U69C U74C, the self-cleavage is 0.19.
As to U26A A28G C37U A64G, the self-cleavage worked out at 0.14.
In the case of U26A A28G A47G it was 0.48; in that of U26A A56U A64G, 0.43; in that of U26A C37U U60C, 0.28.
Regarding U25G U48C A57U U60A, the self-cleavage is 0.08.
As for U26A A47G G61A, the self-cleavage is 0.5.
Consider U26A A35G U58C, for which the self-cleavage is 1.19.
For the variant U25G U43G U69A C71U, the self-cleavage was 0.19.
As to U26A A57U U74A, the self-cleavage is 0.56.
The same measure for U25G C37A U54G U66C: 0.15; for U25C U60G A77G: 0.15; for U26A A47G U54C: 0.72.
For U26A C29A U43C, the self-cleavage is 0.3.
